Experimental data as given in the supplement of paper PMC12632987.
The full ranking holds about 2,300 sequences; the median of “median log2 fold change of GCK-ALFA target abundance (FLAG IP / Myc IP barcode read proportion)” is about 0.095, and the lowest 2% start at about -0.47. The list shows a part of the results.

B1: LC3A_28_677 (protein)
chain: SMLKENLEAALKEAKEAAKKGEPTVIEIYVPGNATEEEIEELIKKLEEIAEILKDVEGSAIIIHISKDLKQEHKDKIIDKAEEINEKYPNVTVIIALEEK
B2: LC3A_127_189 (protein)
chain: EIEKLSEELIKTLEELSKLLSSPDFDLEEAKKLAKEALKLAEELEKLDPRFKPVVEDAKQLLKIIEEMATASPAEQEELREHALMLVEGMIIEVESLLLK
B3: LC3A_3_1523 (protein)
chain: MEEIEKRILELLKEMGADEETLAKAKEALKLLKERGYEEALKTFLEELEELKDAPPEVIADFVEDVLELLKTEDLSEEELKEKIKEIARIAKSESEIEEL
B4: LC3A_28_1225 (protein)
chain: AAVDAEIAAARAAMAAAAAAGEEATITVKITGKTTLADVKRLMEALRAIVAEHAHLPRISIIIDLSGKVTQEQIDAAAEGGERIEKEFPNVTVILALDEN
B5: LC3A_3_1553 (protein)
chain: MEELKKKLLEELKKAGASEEVLKAAEEAFEALIKRGYEEAAKTLAEEVKKMLDLPDEILLDFLKDVLELVKTEDLNEEETIKKIKELATIAKNESEIIEL
B6: LC3A_free_39_2271 (protein)
chain: SEEEREEIVRGLEELLARAPEVSEEVRERLLEIAREDPEVGRVIRDYLARALEEGRDVAALAERVVATYEELRAAGKSREEIEEEVRLEAAELVNLEPLD
B7: LC3A_3_1822 (protein)
chain: MDEALAATLAELRAAGASEATLAAVRRTFAALRAKGYDEAARTFAELMREMRHLPSELLLEFAEDVLELVESRDLSEEELTAEIRRLARLYENEGEIIEL
B8: LC3A_28_635 (protein)
chain: SAIDEELAALRAAAEAAAAAGEEAVLTLKVGGDTDEEDVEKIIATLEEVAAITAGLKSTSIIIDIDGKVKQEHIDKLMDAGEEIEKKYPNVTVIFALDEE
B9: LC3A_28_1190 (protein)
chain: SALEEQLKKALEEAKEAAAKGEPAVITIEVPGDANQEDIEKVIKAMEEIAEILKDIPGSAIIVDLDGGVKQEHEDKIAEKAEEIEKKYPNVTVILALEER
B10: LC3A_28_892 (protein)
chain: SKEIEKAKKALEEAKKALAAGNTEPLVLEVDLPSTEEDVEKFLELLEEIAKVGSKKPGVSIVIDVDESVSQENIDKVIDKAEELEEKYPNVTIIIALPEN
B11: LC3A_28_1213 (protein)
chain: SPAEEAIKKAEEQFEEAIKSGEPKAIVVKITKEITKEEAEKIMKAIEEQVEKAKDIKGLAIVIDVEKGVSQEVIDLIAKKAEEIEKKYPNVTVIIALEEE
B12: LC3A_28_1273 (protein)
chain: SNIEEEIEKAKEEAKKAVEEKKPQVITIKIDGNATQEDIEKVIEAMEEIAELLKDIPNQAIVIDVDKGVKQENIDKLIDAAEEIEKKYPNVTVIIALDED
B13: LC3A_132_320 (protein)
chain: MEEKARRIREEILRLIEEAEENIDDLEKVEELVEEIRELARRAEEELTPEQVAEIFEEAAEKADEVSLKADEEGKEDVALLMDGLSVELAALSIRAEEKI
B14: LC3A_28_1042 (protein)
chain: NALEKDAKAAIAEAEKQLEKGEEAVVTLKVPKIDKETAEKIVRETLEELIKLSKKYGNKKVHVVIDFDGDQETLDAIIDVAEEAEKADPNLTVIIAYDPE
B15: LC3A_28_684 (protein)
chain: SKTEENLEKALKEAEEALKKGEPTVVTIKVYGDVTEEELEKILEALEKIAEILNKIPGSAIIIDIDKDVKEEFKDKIIDKAEELEKKYPNVTIIIALEER
B16: LC3A_28_1077 (protein)
chain: SPIEEQVEAALAELREAGARGEEAVLTITVTENATQEDIETVIAGLKEIAELAKTSGKVSVIINLDGNIPQEFIDKLADAAEEVEAANPNVTVIIALPDE
B17: LC3A_28_714 (protein)
chain: SPLEESIKKALEEAKEAAKKGEEAVIEIKVEGEITEEETEKVQKAIEEIAEITKDLKSTTIIVDVDGKVPQEHINKILDKGEEVEKKYPNVTVIFALDEN
B18: LC3A_3_1879 (protein)
chain: MEEEIEETIEELKKAGKSEETIEKFREAMELLKERGWEEALKTLIEEVRKLIDAPNEIVLDFLEEVLETIKTEDLSEEELIERIKELARLARNESEIIEL
B19: LC3A_3_1463 (protein)
chain: AEELIKEAREILEAQGWSPETIAAAEALLKALAAKGYEEAMKTVVELLKEAKGVPSDILLATFEDLLAIVETEDLTEEEVIARIKEEFAAAKAEAEIEEL

Each binder was assayed against MAP1LC3A, Q9H492 (assay: median log2 fold change of GCK-ALFA target abundance (FLAG IP / Myc IP barcode read proportion) (log2 ratio); each designed protein is fused to an ALFA-tag nanobody in HEK293 cells to bring the named protein to FLAG-tagged glucokinase (GCK); Myc marks an untargeted standard; higher = target protein stabilised (more abundant)). Conditions: target protein: 3xFLAG-MCP-GCK-ALFA reporter; HEK293 landing pad (RPLP).
Method: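 LABEL-seq trans screen in HEK293 landing-pad cells. Each de novo designed 100-aa effector handle, binding the indicated effector (E3 ligase, DUB or autophagy protein), is fused to a constant NbALFA target handle and induced with 2 ug/mL doxycycline. A FLAG-MCP-GCK-ALFA target and a Myc-MCP standard reporter were transfected, and after 48 h circRNA barcodes were recovered by anti-FLAG and anti-Myc IP and sequenced. The value is the median across barcodes (at least 3 per design) of log2(FLAG/Myc read-proportion ratio), with the two transfection replicates pooled. Negative values mean degradation and positive values mean stabilisation of the target.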

| Binder | median log2 fold change |
| --- | --- |
| B1 | 0.274 |
| B2 | 0.153 |
| B3 | 0.315 |
| B4 | 0.191 |
| B5 | 0.149 |
| B6 | 0.327 |
| B7 | 0.097 |
| B8 | -0.119 |
| B9 | 0.042 |
| B10 | -0.352 |
| B11 | 0.284 |
| B12 | -0.163 |
| B13 | 0.104 |
| B14 | -0.0746 |
| B15 | 0.0124 |
| B16 | 0.0615 |
| B17 | 0.219 |
| B18 | 0.0991 |
| B19 | 0.2 |
